# Measured values published in paper PMC10726135.
# Some of the results follow. At the low end of the ranking the order means little. Measured with an extract: partners may take part in the binding.
# Molecular target: T1, HNF4alpha2 (COS-7 nuclear extract) (UniProt P41235)
# T1 sequence: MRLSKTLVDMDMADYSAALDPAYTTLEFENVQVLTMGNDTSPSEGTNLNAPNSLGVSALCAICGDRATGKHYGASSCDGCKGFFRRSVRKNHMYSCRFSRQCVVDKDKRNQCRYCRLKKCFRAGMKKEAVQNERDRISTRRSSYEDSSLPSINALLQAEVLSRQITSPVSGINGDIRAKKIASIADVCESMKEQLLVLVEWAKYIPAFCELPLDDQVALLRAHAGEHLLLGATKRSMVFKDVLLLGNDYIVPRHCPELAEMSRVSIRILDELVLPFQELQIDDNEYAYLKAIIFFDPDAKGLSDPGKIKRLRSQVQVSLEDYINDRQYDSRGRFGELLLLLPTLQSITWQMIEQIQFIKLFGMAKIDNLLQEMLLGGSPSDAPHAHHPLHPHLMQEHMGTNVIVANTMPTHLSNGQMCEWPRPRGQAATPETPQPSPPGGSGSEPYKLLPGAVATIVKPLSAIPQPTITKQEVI
# Assay: protein-binding microarray
# Conditions: COS-7 nuclear extract on double-stranded Agilent 4x180k PBM; binding buffer, salt, pH and temperature not given; high values mean tight binding; double strand, one strand shown; sequences stand for … in …GCCTAGGGAGATTAGAGTATCGGTCGA
row,Sequence,binding signal (log2 normalized intensity)
1,CTACCTTTGCTCTTAATTCAATGGGGTGGG,1.48
2,GCTCACTATTAACTTTTCCATGTCCAAAGG,2.39
3,TCGGCTCTCAGCGGAACTTTCCTCTCCGCG,-1.13
4,CTTTCCTGTTGGGGAGCAAAGGTTAGCAAG,3.85
5,CTCCTGCGGTCCGGACTCTGCCCCACAATT,3.76
6,GTCTCAGGTGGAGATAAGGAATTTGTTAAG,0.804
7,GTCAAACTTTGGACCCACTGCAGGATTGGA,3.52
8,CTTCACTTGTAGGAGACCTTGAGGATAAGT,1.39
9,CTATTCTCTAAACTCTGGGCTCTATTTGGA,0.344
10,TAATTAACTTGTGTTCAGAGCTTGCTGCAT,-0.839
11,CTTATCTCAAGAATTGTCTAACCGCAGCAA,-1.15
12,CTCTGCCTGCGTCTTATATAAGCTATTACT,-0.778
13,CTCCGCCCCATTGTCTTAGGCCTCGGGAGT,1.51
14,GTACTCCTCACTGTTGTGACATACTGCCTT,1.01
15,GTTATCCTTGTTCTATGTTCACATCTCCTC,1.41
16,ATGATAACCCAGTGCAATGCCTAAACCAGG,-1.08
17,TATCAGCCTGTGACAAAGTCCATCTGGGCA,3.25
18,GCCGCCGCCGTGGGAGAGGCCGCCCCCTGC,4.07
19,TGATAGCCTTTTACCTTGGCAGCCACTGAG,-0.876
20,CCCAGAAACACTGAACCTTGTCCCACTCTT,2.17
21,TGCTGGGCTGCATTCCCAGATGGTTAGGTA,-0.0978
22,CCAAAACTCTCTCTCTGTGTCACATACACC,0.462
23,GGTCACACTGCACCTGCCTGAACAAGTCCA,-1.17
24,AACCTGACTGCGCTCCCAGAAGCCTCCGGT,-1.16

row,Sequence,binding signal (log2 normalized intensity)
1,GTCACCATAAAACATTCTATTCTATCTGTA,-1.17
2,TGAGATAAAAAGAAGCTTGGTATGTCTGAT,1.34
3,ATTCTTTGCCATGACCTTTGAAGCCCAGAA,4.66
4,CATTGATCTAACAGGAGGTGGAGCTCAGGA,-1.08
5,TTCAGGGCAGAAGAGGTTATCACAGGCTTG,-0.663
6,GTGAGAAGAGAAACACATGCAATCACACTA,-0.984
7,GTGGCTACCTGTGCAGATATTTAACCTTTG,4.11
8,TTATGTACCACCGTATTCCTAGCTCCTAGC,-1.11
9,GGCAACAGTTTTCTGGGATGCCCAAGGAAT,-1.11
10,CACCTGATTCAATGTCTGGAAGTTCTTCCT,0.075
11,CTGCAGTTCAAAGGCAATATCACTTGTTTG,0.442
12,TATTTCCACTGAGGTCAAGATAAGATACGA,0.592
13,CCAGGGAAGCTGGTAGCATGGCTCAGTCCA,-1.14
14,CTTGAGTAGCTGGGACTACAGGCAGGCACC,-1.23
15,TGGTGTGTGTGTGTGTGTTTTGTGCCTGTT,3.08
16,GGAGAAGTTTTATGGCAGGGTCGGAATGTC,1.55
17,GGGCAATTGGTTTCCGCTAAGTCCAAAGGT,3.51
18,GCTGTTTTTCCAGTTTTTGTTTGCACCTCA,1.69
19,TGACCTGTGATAAGAAATGAATGTCACTTT,1.62
20,ACTTTGAACCAAGATATGCTAACATCCCTT,-1.35
21,CCACTAGAGAGACCGTCCCTGGGTACAACT,0.737
22,AGGGGGGAGAAATTAAAGCACATACTTCTT,-0.828
23,CCTTATTCTTAACAAGCTGAGCACCAGAAA,-1.14
24,CCTGCTGAGCCCAATCTAGCAAAAATCCTG,-1.04

row,Sequence,binding signal (log2 normalized intensity)
1,ACATTTTTATCCTTTTTTGAAGGTTAAAGT,2.66
2,TCAACTAAGTGTTATCTAAATTAGATATGG,1.21
3,GGAATTTGCCCTGTGGTCTAGCTTGTTCTC,2.32
4,TGTGTAGGAGTACACTCAGCACACCCCACG,2.16
5,TCCAGGAATGTGCTAAAAAACAAACAAAAA,-0.651
6,CGCCCAGCCAGAAAAACAGCATTTTTATCA,-1.11
7,AATGAACACCTGTTCTAATCAGTAGCTCAC,-1.08
8,CTCTGCACAGCACAAGATAAGATAGGAATT,-0.966
9,CGCCCCGCCTTCGCGCCCGTTTTCGTTTGC,2.07
10,GCCATACGTCTAGAGCTGTCCAGCAGACAA,-1.14
11,GTGACCTTGAGCACTAAAGAGGCTACCAGA,-1.12
12,AGACTGGTTTGCACAGGTTACACAGTATGT,0.747
13,ACATTCCTAAAAGCTTTCTTGGGCAAGAAA,-1.12
14,GAAAGGAAATCATTCCAGAAAGACAGCTGC,-1.02
15,TATGTGGTGGAATGGAAAGAATATGAACTT,1.66
16,AGGCCAGCTGTCTGGTTTGACCTTAAGTCA,4.87
17,AAGTAACAAGAGGCAAAGGCCACAGCTCAG,-1.21
18,TTTACAGCACTTCATCCTTATGTAACTGTA,0.644
19,GAGAAAGCAGTGACCATCCCAAAGCTTTTT,-1.17
20,AAATGCTGATAATGATATGGACAATGAAAT,0.827
21,CCCCCACACAGACAAAGACAGAGAGGCTTC,1.84
22,GGGCAGCACAGCCTCCCTGTGGGGGAGGTG,-1.21
23,CTGCCCTTCCCTCCACTATTGTCCTATGAC,2.33
24,CCCCTGGGCTCAAGCGATCCTCCCACTTCA,-0.639

row,Sequence,binding signal (log2 normalized intensity)
1,GTCCAGGAGTGCAAAGCTGCTATGAGCTAT,-1.08
2,CTTCCAGCCATTTTGTGAGCTCTGATGGCG,-0.92
3,AAAACAGGTAGAGAGCTGTCTGCTGAGGAT,-1.04
4,GCCAGAGTTCCTGTGCAAGCCCCTGACCAA,0.583
5,GCATAGATGTTTAGCTATCAGTGTTGACCT,4.26
6,TTCAGAAGGTAGGTAAGGGGGAATGCCAAC,-1.18
7,TGCGACAGGGAGATTTCCTGGGAGAGAAAA,-1.18
8,TGGTAACCGGAGCAAAGGTTACTCTTGTTA,2.85
9,ATCTAGTTTCCTAGCTCACTGATAAGAAAG,-1.07
10,TACTTTAGCTGCCAGAGGTTCTTTCACAGG,-0.0416
11,CAACATTGCGCAATGCACACACTTACACAT,-1.21
12,TTTCTGCTCTCAACTAGAGATAAACTTTTG,0.835
13,AGTGCATGAATCAACTGTTGTGGACCACGT,1.74
14,AAATGAGAATGAGACCTGCTAGGCTGCATT,-1.33
15,AGTTGGGAAAAGTAACACAGTAAGAGACTT,-0.782
16,TTCATCTCACAGAGTGGAGTCTTCCGTTTG,0.641
17,TGGCTGGCTTTAGAGTTGTAGCTCTCAGCT,-1.12
18,GACCTGGGAATTCAAGGAATGCAGCTCAGA,-1.21
19,AGTCAGTGAAGGAGCTGACTAGATTTCTGT,-0.399
20,ATTTCTGTTGTTGATTTAACATTTGTGATC,1.92
21,TGAGATAATGCTGGTAAAGCACTTTGCCCC,4.81
